The results in this text go back to PubChem BioAssay AID485344 (National Center for Advancing Translational Sciences (NCATS), 2010).

The structures appear in SMILES notation. Hit rate of the full screen: of about 340,000 compounds, about 6,900 (2%) were called active. Rule as the data show it: active = inhibition above about 30%; inactive = below that, where a call was filed. The entries are a selection whose mix differs from that of the whole data set. The source gives no active or inactive call for entries shown without one.

Sequence of UniProt P14416 (P14416 whole entry, looked up): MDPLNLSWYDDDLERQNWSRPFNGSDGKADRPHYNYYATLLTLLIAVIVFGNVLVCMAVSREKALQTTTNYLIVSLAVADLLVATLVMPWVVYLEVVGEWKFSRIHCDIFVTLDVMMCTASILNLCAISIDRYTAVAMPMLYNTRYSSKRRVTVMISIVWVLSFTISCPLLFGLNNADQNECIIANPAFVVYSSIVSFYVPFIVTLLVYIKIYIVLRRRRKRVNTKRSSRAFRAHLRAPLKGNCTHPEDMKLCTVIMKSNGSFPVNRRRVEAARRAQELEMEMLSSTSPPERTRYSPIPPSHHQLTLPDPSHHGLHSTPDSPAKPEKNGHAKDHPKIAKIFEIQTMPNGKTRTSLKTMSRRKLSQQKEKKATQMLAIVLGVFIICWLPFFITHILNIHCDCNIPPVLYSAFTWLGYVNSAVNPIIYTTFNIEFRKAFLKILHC

The test deals with D(2) dopamine receptor (Homo sapiens) (UniProt P14416). The experiment in a line: HTS Assay for Allosteric Antagonists of the Human D2 Dopamine Receptor: Primary Screen for Antagonists. Also: 0% is about no effect. The following applies: HEK293 TREx D2 cells, calcium flux, dopamine EC80; at 10 µM; stronger effect = higher value. A digest of the protocol:
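Compounds are added to dye-loaded, induced HEK293 T-REx cells coupled to calcium release via D2; after a 3 min kinetic read an EC80 dopamine stimulus is given and fluorescence is recorded for 3 more min.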
On the technique in general: Calcium flux is commonly read through the fluorescence of an indicator in the cells.
Take `COc1ccc2oc(=O)c(C(=O)NCCc3c(C)[nH]c4c(Cl)cccc34)cc2c1`: the inhibition turned out to be 17.4%. The figure for `COc1cc2ccccc2cc1C(=O)Nc1cccc(-c2nc3cc(C)c(C)cc3o2)c1C` is -8.94%.

In the case of `Cc1nc2nc(NCc3cccc(Br)c3)[nH]n2c(=O)c1Cc1ccccc1`, the inhibition was determined as 10.3%.

With `O=C(Nc1cccc(Cl)c1Cl)c1ccc2c(c1)N(Cc1cccc(Cl)c1)C(=O)c1ccccc1S2(=O)=O`, the inhibition is 15.7%. On to `CCc1ccccc1NC(=O)N1CCN(c2cc(-c3noc(C)n3)ccc2C)CC1`, for which the inhibition is 10.7%. As for `Cc1ccc(C(=S)N2CCN(Cc3ccccc3)CC2)s1`, the inhibition is active: 50%. Regarding `Cc1ccc(C)c(NC(=O)c2ccc(CN3CC(=O)N4CCCCC4C3=O)cc2)c1` (configuration not stated), the inhibition was -8.92%. Take `CC(=O)Nc1ccc(NC(=O)c2ccc3c(c2)N(Cc2cccc(Cl)c2)C(=O)c2ccccc2S3(=O)=O)cc1`: the inhibition was -4.5%.

`CCn1c(CN2CCCCC2)nc2cc(NC(=O)c3cc(OC)c(OC)c(OC)c3)ccc21`: the inhibition was 4.63%. `CN(Cc1ccccc1)C(=O)c1nc(-c2ccc(Cl)cc2)n2c1CCCCC2`: the inhibition was found to be 8.21%. Turning to `CC1N=C2c3ccccc3N=C(SCC(=O)NCCc3ccccc3)N2C1=O` (configuration not stated), the inhibition was -4.1%. The figure for `COc1ccc(Nc2c3c(nc4ccc(NC(=O)c5ccc(F)cc5)cc24)CCCC3)cc1OC` is -3.68%; for `CCCCOc1cccc(C(=O)N(Cc2ccc(C)o2)c2ccccn2)c1` it is -18.9%; for `CCOc1ccc(CCNC(=O)c2cnc3sc(N4CCCC4)nn3c2=O)cc1` it is 1.75%. The figure for `Oc1ccc(CNCC2COc3ccccc3O2)cc1` (configuration not stated) is active: 185%. The figure for `COc1ccc(NS(=O)(=O)c2ccc3[nH]c4c(c3c2)CCCC4)cc1OC` is 5.83%.

Take `O=C(NC1(C(F)(F)F)NC(=O)N(CCc2ccccc2)C1=O)c1ccc(Cl)cc1` (configuration not stated): the inhibition was -3.38%. For `CCn1ccc2c(OCC(=O)Nc3ccccc3C(F)(F)F)cccc2c1=O`, the inhibition was -19%. Regarding `COC(=O)CC1Oc2ccc(Cl)cc2-n2cc(-c3ccccc3)nc21` (configuration not stated), the inhibition is -5.57%.

`Oc1c(C(c2ccccc2)N2CCC(O)CC2)sc2nc(-c3ccco3)nn12` (configuration not stated): the inhibition is -15%. The figure for `COc1ccc(NC(=O)CN(C)C(=O)c2cc(S(=O)(=O)N(C)C)ccc2N2CCCC2)cc1` is active: 38.2%; for `Cc1ccc(-n2nc3c(=O)n(C(C)C(=O)NCc4ccco4)nc(C)c3c2C)cc1` (configuration not stated) it is 4.11%; for `COc1cc(OC)cc(C(=O)Nc2ccc(-n3cnnn3)c(C)c2)c1` it is active: 38%.

Consider `Cc1ccc(Cl)cc1N1CCN(CCCNC(=O)c2ccc3nc(N4CCCCC4)sc3c2)CC1`, for which the inhibition worked out at 22%.

With `O=C(NCC(c1ccco1)S(=O)(=O)c1cccs1)c1ccccc1F` (configuration not stated), the inhibition was -0.415%.

Turning to `COc1cccc(CNc2cc(C)nc3nc(-c4ccc(C)cc4)nn23)c1`, the inhibition came to 21.9%.

Take `COc1ccc(C2c3c(n(C)c4ccccc34)C(=O)N2CC(=O)Nc2cccc(F)c2)cc1` (configuration not stated): the inhibition worked out at 10.5%. For `COc1ccc(NC(=O)c2oc3ccc(S(=O)(=O)N4CCOCC4)cc3c2C)cc1`, the inhibition was -26.5%. The figure for `Cc1ccc(N2CC(C)Cn3c2nc2c3c(=O)n(Cc3cccc(Cl)c3)c(=O)n2C)cc1` (configuration not stated) is 10.5%. The figure for `O=c1oc2ccc3ccccc3c2cc1-c1nnc(Nc2ccc(F)cc2)s1` is -6.27%; for `CCCc1cc(=O)[nH]c2nnc(SCC)n12` it is -2.72%. Turning to `Cc1ccc(C)c(-n2c(N)c(C#N)c3nc4ccccc4nc32)c1`, the inhibition is -1.89%. For `COc1cc(C2C(=O)N(C3CCCCCC3)CC(=O)N2CCc2ccccc2)ccc1OC(C)C` (configuration not stated), the inhibition was 15.6%.

As for `Cc1nc2ccn(Cc3ccco3)c(=O)c2cc1C(=O)NCc1ccccc1`, the inhibition came out at 2.83%.

Turning to `Cc1cc2cc(CNC(=S)NCc3ccccc3)ccc2n1C`, the inhibition is active: 44.9%. Turning to `COc1ccc(-c2nnc(NC(=O)c3ccccc3C)o2)cc1`, the inhibition is active: 51.4%. With `COc1ccccc1CNS(=O)(=O)c1cnc(N)nc1`, the inhibition is 14.1%. The figure for `COc1ccc(C2=NC(C)(C)N(CC(=O)Nc3cccc(C)c3)C2=O)cc1` is 16.6%; for `COc1ccc(Cn2c(C(=O)O)c(CNCCc3cc(OC)ccc3OC)c3ccc(C)cc32)cc1` it is 1.64%. `CC(=O)Nc1ccc(S(=O)(=O)NCC2CCC(C(=O)NCCN(CC(C)C)CC(C)C)CC2)cc1` (configuration not stated): the inhibition was -23.4%. The figure for `CN(C)C(=O)c1c(NC(=O)c2ccccc2F)sc2c1CCCC2` is 26.6%; for `Cc1ccc(S(=O)(=O)Nc2nc3n(n2)C(c2ccc(F)cc2)C=C(c2ccccc2)N3)cc1` (configuration not stated) it is 10.6%; for `CC1=C(C(=O)Nc2ccc(Cl)cc2)C(CC(C)C)n2nc(SCc3ccccc3C)nc2N1` (configuration not stated) it is 14.6%. The figure for `O=C(c1cccn1-c1nnc(N2CCCC2)s1)N1CCN(c2ccc(Cl)cc2)CC1` is 1.66%; for `COc1cc(C2Nc3c(C)cc(C)cc3-c3cc(C)nn32)cc(OC)c1O` (configuration not stated) it is 4.06%; for `O=C(c1cccc(F)c1)N1CCN(C(=O)C(c2ccccc2)c2ccccc2)CC1` it is active: 31.1%. The figure for `Cc1ccc2c(c1)C(c1ccccc1)N(C(=O)Cc1ccc(F)cc1)CC(=O)N2` (configuration not stated) is 8.05%.

Turning to `C/C(=N\OC(=O)Nc1ccc(Cl)cc1)c1ccc(F)c(F)c1`, the inhibition was active: 41.1%. The figure for `CCCS(=O)(=O)NCCc1sc2nc(-c3ccc(F)cc3)nn2c1C` is -10.5%; for `Cn1c(=O)[nH]c2cc(-c3noc(-c4ccc(C#N)cc4)n3)ccc21` it is -0.186%. As for `CCOC(=O)c1ccccc1NC(=O)CSc1nccn1Cc1ccco1`, the inhibition came to 0.032%. As to `CC(C)Oc1ccc(C(=O)N(Cc2ccco2)Cc2cccs2)cc1`, the inhibition came out at 12.8%. The figure for `O=C(N/N=C/c1cccc2ccccc12)c1cccnc1` is active: 37.3%; for `Cc1cccc(C)c1NC(=O)c1sc(-n2nc(C)c(Cc3ccccc3)c2C)nc1C` it is 7.09%; for `Cc1cc(OCC(=O)N(Cc2ccc(N(C)C)cc2)CC2CCCO2)ccc1Cl` (configuration not stated) it is -9.1%. On to `COc1ccc(-c2cc3nc(C)c(CCC(=O)NC4CCCCC4)c(C)n3n2)c(OC)c1`, for which the inhibition was determined as 0.248%.

As to `C#CCOCCOCCOCCNc1nc(N2CCN(C(=O)[C@H](C)n3cc(CCCN=C(N)N)nn3)CC2)nc(N2CCN(C(=O)[C@H](CCCCN)n3cc(CCCC)nn3)CC2)n1`, the inhibition was active: 31%. Take `COc1cccc(-c2nc(S(=O)(=O)c3ccc(C)cc3)c(N3CCCCC3)o2)c1`: the inhibition is -6.99%. The figure for `COc1ccc(-c2nc(SCC(=O)Nc3c(C)cc(C)cc3C)n[nH]2)cc1` is 8.99%; for `O=C(Nc1nc2c(s1)CN(Cc1ccccc1)CC2)c1cccc(S(=O)(=O)N2CCc3ccccc32)c1` it is active: 40.8%; for `CCOC(=O)c1c(C)oc2ncnc(Nc3ccc(OC)c(OC)c3)c12` it is 0.724%.

With `COC(=O)c1ccc(C(=O)OC)c(NC(=O)c2ccc(-c3ccccc3)s2)c1`, the inhibition stood at 13.8%. The figure for `COCCCNC(=O)CCC(=O)NNc1nc2ccccc2c2nc(C)nn12` is -7.4%; for `CC(C)Oc1ccc(-c2nc3c(C#N)c[nH]n3c2NC2CCCCC2)cc1` it is 16.3%. Take `COc1ccc(N2CC(NC(=O)C(c3ccccc3)c3ccccc3)CC2=O)cc1OC` (configuration not stated): the inhibition amounted to 14.7%. The figure for `COC(=O)c1nnn(CC(=O)NC(=O)Nc2c(C)cccc2C)c1C(=O)OC` is 16.8%. The figure for `CC1Cc2ccccc2N1S(=O)(=O)c1nnc(NC(=O)c2ccccc2)s1` (configuration not stated) is 14.9%; for `COc1ccc(C2CC(=O)c3cc(-c4nc(-c5ccc(Cl)cc5)cs4)c(=O)[nH]c3C2)cc1OC` (configuration not stated) it is 5.45%; for `CCn1cc(C(=O)N2CCN(c3cccc(C)c3C)CC2)c2cc(OC)c(OC)cc2c1=O` it is 11.9%. The figure for `NNc1ncnc2c1cnn2-c1ccccc1` is active: 30.7%. As to `NS(=O)(=O)c1ccc(NC(=O)C2Cc3ccccc3N2C(=O)c2ccccc2)cc1` (configuration not stated), the inhibition was 17.4%. As for `COc1ccc(OC)c(CCNC(=O)Cn2ncc3c([nH]c4ccccc43)c2=O)c1`, the inhibition was found to be 4.9%. The figure for `CCCCN(CC)CCCNC(=O)c1nn(C)c2c1CSc1ccccc1-2` is 12.5%. For `Cc1ccccc1C(=O)n1nc(-c2cccnc2)nc1NCc1ccccc1`, the inhibition was -13.2%. The figure for `CCn1cc2nc(SCC(=O)Nc3ccccc3C(F)(F)F)n(Cc3ccc(C)cc3)c(=O)c2n1` is -9.14%; for `CCOC(=O)c1c(C)[nH]c(CCC(=O)Nc2ccc(OC)c(OC)c2)c1C` it is -10.1%. The figure for `CC(C)NC(=O)CCC(=O)N1Cc2ccccc2Oc2ncccc21` is -3.79%; for `Cc1noc(C)c1S(=O)(=O)N1CCC(C(=O)N2CCN(c3cccc(C(F)(F)F)c3)CC2)CC1` it is -5.28%. The figure for `CCC1CCCCN1C(=O)CSc1nc2c([nH]c3ccccc32)c(=O)n1-c1ccc(OC)cc1` (configuration not stated) is -6.21%. For `CCOc1ccccc1CNc1nc2nc(C)cc(C)n2n1`, the inhibition was -2.07%.

Turning to `Cc1ccc(Cn2c(C(C)NC(=O)c3ccccc3)nc3ccccc32)cc1` (configuration not stated), the inhibition amounted to 0.648%.

As to `Cc1ccccc1CN1C(=O)c2ccccc2S(=O)(=O)c2ccc(C(=O)OCC3CCCO3)cc21` (configuration not stated), the inhibition came to 2.89%. The figure for `Cc1ccc(C(C)C)c(OC(C)C(=O)NCC2(N(C)C)CCCCC2)c1` (configuration not stated) is -3.22%.

As to `COc1ccc(NC(=O)c2sccc2SCC#N)cc1`, the inhibition is active: 31.6%.

On to `COc1ccc(S(=O)(=O)Nc2cc(S(=O)(=O)c3ccccc3)c(O)c(C)c2C)cc1`, for which the inhibition was -1.55%.

Take `Cc1cc(OC(C)C(=O)Nc2sc3c(c2C(N)=O)CCCC3)ccc1Cl` (configuration not stated): the inhibition is 8.72%.

With `CC(NC(=O)CN1C(=O)c2cccnc2Oc2ccc(Cl)cc21)c1ccccc1` (configuration not stated), the inhibition was -3.5%. The figure for `CC(CN1c2ccccc2Sc2ccccc21)N(C)C` (configuration not stated) is active: 54.1%. The figure for `COc1ccc(-c2cc3ccc(O)c(CN4CCC(C)CC4)c3oc2=O)cc1OC` is -4.33%; for `Cc1cccc(Cn2cccc2CNS(=O)(=O)c2ccc(Br)cc2)c1` it is 11.7%; for `COc1cc(-c2nnc(SCCOc3cc(C)cc(C)c3)o2)cc(OC)c1OC` it is 9.82%. `Cc1ccc(-c2nnc(Nc3ccc(F)cc3)c3ccccc23)cc1S(=O)(=O)N1CCN(C)CC1`: the inhibition is 5.57%. The figure for `Cc1ccc(CNCc2cccn2-c2nnc(N3CCCC3)s2)cc1` is 17.1%; for `CCOc1cccc2c1Oc1nc(-c3ccccc3)nc(SCC(=O)Nc3ccc(F)cc3)c1C2` it is 5.35%.

As to `O=C(c1ccccc1Cl)N1CCCCC1CCN1CCOCC1` (configuration not stated), the inhibition is -7.78%. Consider `COc1ccc(C2Nc3ccccc3NC3=C2C(=O)CC(C)(C)C3)cc1OC` (configuration not stated), for which the inhibition was active: 37.9%. The figure for `COc1ccc(Cn2c(=S)[nH]c3cc(C(=O)NCCCN4CCOCC4)ccc3c2=O)cc1` is active: 35.6%.

In general, inhibition refers to the change of the read-out against control, counted positive when it falls.
